Data: PubChem BioAssay AID504832 (National Center for Advancing Translational Sciences (NCATS), 2011)
Out of some 310,000 compounds screened, about 18,000 (5.8%) were called active. The shares of active, inactive and inconclusive entries below differ from those in the screen. The call rests on the fitted dose curve; in most records, active means well fitted inhibition curve with a large enough effect; inconclusive means small, poorly fitted or top-dose-only effect, or another doubt; inactive means no such curve, though single readings can be large or run the other way. Potencies of inconclusive entries are left out as doubtful fits.

assay: Primary qHTS for delayed death inhibitors of the malarial parasite plastid, 48 hour incubation; conditions: P. falciparum luciferase growth in erythrocytes; series mostly up to 28.7 µM; activity change, negative = inhibition: at the top concentration
How it was run: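 Luciferase-expressing parasites in RBCs, 2% Hct / 0.1% parasitemia final; RPMI 1640 + 0.5% Albumax; 37 C, 5% CO2, one generation; luminescence read-out, lower signal = inhibition.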
On the % scale 0 is the no-effect control and ±100 the full control effect; potency means the concentration at half of the fitted maximal effect; tags describe the fitted curve by direction and shape.

For `CCCn1c(NC(=O)c2ccccc2Br)nc2ccccc21`, which Potency is on record?
Its Potency is inconclusive [inhibitor, partial curve, poor fit].

For `CC(=O)N1CCc2cc(S(=O)(=O)CCC(=O)NCCc3ccccc3)ccc21`, which “activity change, negative = inhibition” value is on record?
The value was inactive: 6.67%.

Which Potency does the source give for `CC(=O)c1cccc(Nc2c3c(nc4ccccc24)CCC3)c1` here?
Its Potency is inconclusive [inhibitor, single point].

For `O=C(Nc1ccc(O)cc1)c1ccc(NC(=O)C2CCCO2)cc1` (configuration not stated), which “activity change, negative = inhibition” value is on record?
The value was inactive: 20.5%.

Which Potency does the source give for `CC(C)Cn1c(SCC(=O)N2CC(=O)Nc3ccccc32)nc2ccccc21` here?
Its Potency is inconclusive [inhibitor, single point].

Which “activity change, negative = inhibition” value does the source give for `Cc1cccc(OCc2nnc(SCC(=O)Nc3ccc(C)c(Cl)c3)o2)c1` here?
The value was inactive: 35.6%.

For `COc1ccc(C=O)cc1COc1ccccc1F`, which “activity change, negative = inhibition” value is on record?
Its value is inactive: 22.8%.

For `COc1ccc(OC)c(-c2cc(C(=O)N/N=C(\C)c3cccnc3)c3ccccc3n2)c1`, which Potency is on record?
Its Potency is active: 1.47 µM.

With `O=c1oc2cc(OCc3c(F)cccc3Cl)ccc2cc1-c1ccccn1` as the compound, how does the “activity change, negative = inhibition” value read?
The value was inactive: 12.1%.

Which “activity change, negative = inhibition” value does the source give for `C=CCNC(=O)/C=C/c1cccs1` here?
Its value is inactive: 27.2%.

For `COc1ccc(S(=O)(=O)NN(C)C(=O)c2nn(-c3ccccc3)ccc2=O)cc1`, which Potency is on record?
The Potency was inconclusive [inhibitor, partial curve, poor fit].

For `COc1ccc(S(=O)(=O)Cc2ccc(C(=O)N3CCN(c4ccccc4)CC3)o2)cc1`, which Potency is on record?
The Potency was inconclusive [inhibitor, single point].

Which “activity change, negative = inhibition” value does the source give for `COC(=O)c1ccc(/C=C2\Oc3ccccc3NC2=O)cc1` here?
The value was inactive: 101%.

Which Potency does the source give for `COC(=O)C(Nc1ccccc1Cl)(c1cc(C)c(O)c(C)c1)C(F)(F)F` (configuration not stated) here?
Its Potency is active: 9.28 µM.

With `CCOc1ccccc1-c1cc(C(=O)N/N=C/c2ccc3c(c2)OCO3)c2ccccc2n1` as the compound, how does the Potency read?
The Potency was active: 2.33 µM.

With `CS(=O)(=O)Nc1cccc(C(=O)OCCCOc2ccc(F)cc2)c1` as the compound, how does the “activity change, negative = inhibition” value read?
Its value is inactive: -6.92%.

Which Potency does the source give for `O=C(COc1cccc(F)c1)Nc1nc(-c2cccnc2)cs1` here?
The Potency was inconclusive [inhibitor, single point].

With `O=C(NC1CCCCC1)C1CC=CCC1C(=O)OCC(Cl)=C(Cl)Cl` (configuration not stated) as the compound, how does the “activity change, negative = inhibition” value read?
The value was inactive: 10.5%.

For `CC1=C(C(=O)Nc2ccccc2)C(c2ccncc2)n2nnnc2N1` (configuration not stated), which “activity change, negative = inhibition” value is on record?
The value was inactive: 27.4%.

For `C/C(=N\NC(=O)C1(C)CC1(Br)Br)c1cccc(NC(=O)c2ccc(C)o2)c1` (configuration not stated), which Potency is on record?
The Potency was inconclusive [inhibitor, partial curve].

With `O=C(Nc1ccc(F)cc1)Nc1nnc(COc2ccccc2F)s1` as the compound, how does the Potency read?
Its Potency is inconclusive [inhibitor, single point].

For `O=C(CN1CCN(Cc2ccc(F)cc2)CC1)Nc1nc2ccccc2s1`, which “activity change, negative = inhibition” value is on record?
The value was inactive: -20.1%.

Which “activity change, negative = inhibition” value does the source give for `CCCc1ccc(Oc2cc(NN3CCCCC3)c([N+](=O)[O-])cc2[N+](=O)[O-])cc1` here?
The value was inactive: 37.7%.

Which “activity change, negative = inhibition” value does the source give for `S=C(NCc1cccnc1)Nc1cccc2ccccc12` here?
The value was inactive: -9.88%.

Which “activity change, negative = inhibition” value does the source give for `Cc1cc(=S)n(-c2ccccc2)n1C` here?
Its value is inactive: 0%.

With `COc1ccc(-c2nnc(SCc3ccc(C(=O)O)cc3)n2C)cc1OC` as the compound, how does the “activity change, negative = inhibition” value read?
The value was inactive: 0%.

Which Potency does the source give for `O=C(c1cccc(F)c1)N1CCN(Cc2ccc3c(c2)OCO3)CC1` here?
Its Potency is inconclusive [inhibitor, single point].

Which Potency does the source give for `Cc1ccc(-c2nnc(Nc3ccc(CC(N)=O)cc3)c3ccccc23)cc1S(=O)(=O)NCCO` here?
Its Potency is active: 6.57 µM.

With `COc1cc(OC)c(/C=N/NC(=O)c2ccncc2)c(OC)c1` as the compound, how does the “activity change, negative = inhibition” value read?
Its value is inactive: -7.45%.

For `COc1cc(-c2nc3cnccn3c2Nc2c(C)cccc2C)ccc1O`, which Potency is on record?
The Potency was inconclusive [inhibitor, single point].

With `Cc1ccccc1Nc1nc(N)nc(COC(=O)[C@@H](NC(=O)c2c(F)cccc2F)C(C)C)n1` as the compound, how does the Potency read?
Its Potency is inconclusive [inhibitor, partial curve, poor fit].

Which Potency does the source give for `CCN(C(=O)COC(=O)c1ccccc1NCCO)c1cccc2ccccc12` here?
Its Potency is inconclusive [inhibitor, single point].

For `Cc1ccc(C)c(NC(=S)N2CCC(NC(=O)c3cccc(F)c3)CC2)c1`, which “activity change, negative = inhibition” value is on record?
Its value is inactive: -9.03%.

With `CCC(=O)Nc1c(C#N)c2nc3ccccc3nc2n1C1CCCCC1` as the compound, how does the Potency read?
Its Potency is inconclusive [inhibitor, partial curve].

Which Potency does the source give for `Cc1cccn2c(CNCCc3ccccn3)c(C(=O)N3CCOCC3)nc12` here?
The Potency was inconclusive [inhibitor, single point].

For `Cc1ccc(CNC(=O)C2CCCN(S(=O)(=O)c3c(C)noc3C)C2)cc1` (configuration not stated), which Potency is on record?
Its Potency is inconclusive [inhibitor, partial curve].

With `COc1ccc(NC(=O)CN(C)S(=O)(=O)c2ccc3c(c2)CC(C)N3C(C)=O)c(OC)c1` (configuration not stated) as the compound, how does the Potency read?
Its Potency is inconclusive [inhibitor, partial curve].

With `COc1cc(CN2CCC(N3CCC(C(=O)N4CCCC4)CC3)CC2)cc2c1OCO2` as the compound, how does the “activity change, negative = inhibition” value read?
Its value is inactive: 32.2%.

With `Cc1cc(C(=O)Cn2ncc(Cl)c(Cl)c2=O)c(C)n1CC(F)(F)F` as the compound, how does the “activity change, negative = inhibition” value read?
The value was inactive: 4.98%.

With `C=C(C(=O)c1ccccc1)C(CC(=O)c1ccccc1)c1ccccc1` (configuration not stated) as the compound, how does the Potency read?
The Potency was inconclusive [inhibitor, single point].

Which Potency does the source give for `O=C(CSc1nnc(Cc2cccs2)n1-c1ccccc1)NC1CCCCC1` here?
The Potency was inconclusive [inhibitor, partial curve, poor fit].

For `COc1ccc2c(C)cc(SCc3c(C)noc3C)nc2c1`, which “activity change, negative = inhibition” value is on record?
Its value is inactive: -11.6%.

Which “activity change, negative = inhibition” value does the source give for `COC(=O)c1ccc(NC(=S)N2CCN(Cc3ccccc3Cl)CC2)cc1` here?
The value was inactive: 1.32%.

For `CCN1CCN(C(=O)c2ccc3c(=O)n(CCC4=CCCCC4)c(=O)[nH]c3c2)CC1`, which Potency is on record?
Its Potency is inconclusive [inhibitor, single point].

With `CC(C)[C@@H](C(=O)N1CCN(C(=O)OC(C)(C)C)CC1)n1cc(CCO)nn1` as the compound, how does the “activity change, negative = inhibition” value read?
Its value is inactive: 3.82%.

Which Potency does the source give for `Cc1ccc(NC(=S)NCCN(C2CCCCC2)C2CCCC2)cc1C` here?
The Potency was inconclusive [inhibitor, partial curve, poor fit].

Which “activity change, negative = inhibition” value does the source give for `COc1ccc(C)cc1NC(=O)c1cc2c(s1)CCC2` here?
Its value is inactive: 12.1%.

Which Potency does the source give for `CCN(CC)S(=O)(=O)c1cc(NC(=O)C(C)Nc2ccccc2N2CCOCC2)ccc1C` (configuration not stated) here?
Its Potency is inconclusive [inhibitor, full curve, poor fit].

Which Potency does the source give for `COc1ccc(-c2cc(C(=O)Nc3ccccc3O)c3ccccc3n2)cc1OC` here?
Its Potency is inconclusive [inhibitor, single point].

Which Potency does the source give for `CCCCCc1cc(=O)oc2c(C(CCN(CC)CC)c3ccc(N(C)C)cc3)c(OC)cc(OC)c12` (configuration not stated) here?
Its Potency is inconclusive [inhibitor, single point].

Which Potency does the source give for `COc1ccc(-n2c(SCC(=O)N3CCCCC3)nc(O)cc2=O)cc1` here?
The Potency was inconclusive [inhibitor, single point].

Which Potency does the source give for `COC(=O)[C@@]12OC[C@]34[C@H]([C@@H](O)[C@@H]1O)[C@@]1(C)C(=O)C(O[C@@H]5OC(CO)[C@@H](O)[C@@H](O)[C@@H]5O)=C[C@@H](C)[C@@H]1C[C@H]3OC(=O)[C@H](OC(=O)/C=C(\C)C(C)(C)OC(C)=O)[C@@H]24` (some centres not stated) here?
The Potency was active: 2.62 µM.

Which “activity change, negative = inhibition” value does the source give for `COc1ccc(C(=O)COC(=O)C(CCSC)NS(=O)(=O)c2ccc(Cl)cc2)cc1` (configuration not stated) here?
The value was inactive: 13.2%.

For `CCCCn1c(N)c(N(CC(C)C)C(=O)c2ccc(S(=O)(=O)N3CCCCCC3)cc2)c(=O)[nH]c1=O`, which Potency is on record?
The Potency was inconclusive [inhibitor, single point].

For `CCOC(=O)C1=C(N)Oc2ccc3ccccc3c2C1c1ccc(O)c(OC)c1` (configuration not stated), which Potency is on record?
The Potency was inconclusive [inhibitor, partial curve].

For `COc1ccc(-c2noc(CN3CCC(Cc4ccccc4)CC3)n2)cc1`, which “activity change, negative = inhibition” value is on record?
Its value is inactive: 9.94%.

Which Potency does the source give for `CC(=O)Nc1ccc(Sc2ncccc2C(=O)Nc2ccc(OC(F)(F)F)cc2)cn1` here?
Its Potency is active: 13.1 µM.

With `O=C(COC(=O)CNS(=O)(=O)/C=C/c1ccccc1)Nc1cc(S(=O)(=O)N2CCCCC2)ccc1Cl` as the compound, how does the “activity change, negative = inhibition” value read?
The value was inactive: -5.85%.

For `CCCCN(CC)C(=O)c1cc2cc3ccc(Cl)cc3nc2o1`, which Potency is on record?
Its Potency is inconclusive [inhibitor, single point].

Which Potency does the source give for `CCOc1ccccc1-c1nc(-c2cc3ccc(C)cc3[nH]c2=O)no1` here?
Its Potency is active: 9.28 µM.

Which Potency does the source give for `CCc1ccc(NC(=O)[C@H](C)NC(=O)C2CCN(C(=O)[C@@H](NC(=O)OC(C)(C)C)C(C)C)CC2)cc1` here?
Its Potency is inconclusive [inhibitor, partial curve].

For `CCOCCn1c(COc2ccc(C)cc2)nc2ccccc21`, which “activity change, negative = inhibition” value is on record?
The value was inactive: 40%.

With `CCOc1cccc(CN2CCCC(N3CCc4cc(OC)c(OC)cc4C3)C2)c1O` (configuration not stated) as the compound, how does the Potency read?
The Potency was inconclusive [inhibitor, single point].

For `CCC(=O)N1CCc2cc(S(=O)(=O)NCCC(=O)N3CCN(Cc4ccccc4)CC3)ccc21`, which Potency is on record?
The Potency was inconclusive [inhibitor, partial curve, poor fit].

Which “activity change, negative = inhibition” value does the source give for `BrC(=C\c1ccccc1)/C=N/N1CCN(Cc2ccccc2)CC1` here?
The value was inactive: -12.7%.

For `COc1ccc(CP(=O)(c2ccccc2)c2ccccc2)cc1`, which Potency is on record?
The Potency was inconclusive [inhibitor, partial curve, poor fit].

With `CCCCNc1c(N)n(CCCC)c(=O)[nH]c1=O` as the compound, how does the Potency read?
Its Potency is inconclusive [inhibitor, partial curve, poor fit].

Which Potency does the source give for `CC(C)Oc1ccc(C(=O)Nc2ccc(N3CCCCC3)cc2)cc1` here?
The Potency was inconclusive [inhibitor, partial curve, poor fit].

For `Cc1ccc2nc(-c3ccccc3)c(CN3CCN(c4ccccc4F)CC3)n2c1`, which Potency is on record?
The Potency was inconclusive [inhibitor, single point].

For `CCN(CC)c1ccc(/C=C2/C(=O)N(c3ccc([N+](=O)[O-])cc3)N=C2N2CCOCC2)cc1`, which “activity change, negative = inhibition” value is on record?
The value was inactive: -15.9%.

With `CN(C)c1ccc(CNC(=O)c2cc(S(=O)(=O)N3CCOCC3)cn2C)cc1` as the compound, how does the “activity change, negative = inhibition” value read?
Its value is inactive: 0.563%.

For `CC(=O)c1c(C)[nH]c(C(=O)Nc2ccc(Cl)c(S(=O)(=O)N3CCOCC3)c2)c1C`, which Potency is on record?
The Potency was active: 4.15 µM.
